Assay results: PubChem BioAssay AID504832 (National Center for Advancing Translational Sciences (NCATS), 2011)
Out of some 310,000 compounds screened, about 18,000 (5.8%) were called active. Inconclusive results, whose numbers are uncertain, are shown with a selection of clear calls. Calls come from the whole dose curve; as a rule, active = well fitted inhibition curve with a large enough effect; inconclusive = small, poorly fitted or top-dose-only effect, or another doubt; inactive = no such curve, though single readings can be large or run the other way. Potencies of inconclusive entries are left out as doubtful fits.
Potency is the fitted concentration of half-maximal effect; tags give direction and shape of the fitted curve.

Experiment: Primary qHTS for delayed death inhibitors of the malarial parasite plastid, 48 hour incubation
Settings: P. falciparum luciferase growth in erythrocytes; series mostly up to 28.7 µM
How it was run: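 Cell-based growth assay: transgenic P. falciparum expressing firefly luciferase, cultured in red cells within RPMI 1640 containing 0.5% w/v Albumax, 24 mM bicarbonate and gentamycin. A drop in luciferase activity indicates inhibition.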
In the case of `CC1(C)Cc2cccc(OCC(=O)NCc3ccccc3F)c2O1`, the Potency is reported as inconclusive [inhibitor, partial curve, poor fit].
With `O=C(Cn1cc(C(=O)c2ccco2)c2ccccc21)Nc1ccccc1F` the Potency was inconclusive [inhibitor, single point].
For `CCOC(=O)CCNC(=O)N1CCCC(N(C)CCc2ccc(OC)c(OC)c2)C1` (stereo unspecified), the Potency was “inactive”.
In the case of `CCc1ccc(CN(C)C(=O)C2CCC(=O)N(Cc3cccc(OC)c3)C2)nc1` (stereo unspecified), the Potency is reported as inconclusive [inhibitor, full curve, poor fit].
With `CCOc1cc(C2NC(=O)CCC2[N+](=O)[O-])cc(Br)c1OC` (stereo unspecified) the Potency was “inactive”.
For `Cc1nn(Cc2ccc(F)cc2)c(C)c1NC(=O)c1noc2c1CCCCC2`, the Potency was inconclusive [inhibitor, single point].
With `O=C(c1ccccc1)c1cccc(NC(=O)c2ccc(Br)o2)c1` the Potency was inconclusive [inhibitor, single point].
In the case of `S=C(NC1CCCCC1)N1CCOCCOCCN(C(=S)NC2CCCCC2)CCOCC1`, the Potency is reported as active: 11.7 µM.
With `COc1ccc(-c2cc(-c3n[nH]c(=S)n3-c3ccccc3OC)[nH]n2)cc1` the Potency was “inactive”.
With `NNC(=O)CSc1nnc(-c2ccccc2)n1-c1ccccc1` the Potency was inconclusive [inhibitor, partial curve, poor fit].
In the case of `CN(C)c1ccc(/C=C2\CCC/C(=C\c3ccccc3)C2=O)cc1`, the Potency is reported as inconclusive [inhibitor, single point].
For `CC1=C(C(=O)OCC(C)C)C23C(=O)c4ccccc4C2(O1)OC(N)=C3C#N` (stereo unspecified), the Potency was inconclusive [inhibitor, single point].
For `Cc1ccc(N(CCC#N)C(=O)CSc2nc3ccccc3c(=O)[nH]2)cc1`, the Potency was inconclusive [inhibitor, partial curve].
For `O=C(NC12CC3CC(CC(C3)C1)C2)C12CC3CC(C1)CC(n1cnc(Cl)n1)(C3)C2`, the Potency was inconclusive [inhibitor, partial curve, poor fit].
For `COc1cc(OC)cc(C(=O)NC(C(=O)NCCN(C)C)C23CC4CC(CC(C4)C2)C3)c1` (stereo unspecified), the Potency was inconclusive [inhibitor, single point].
With `C=CCn1c(CCNC(=O)c2ccc(Cl)c(Cl)c2)nnc1SCCOc1ccc(OC)cc1` the Potency was inconclusive [inhibitor, partial curve, poor fit].
In the case of `COc1ccc(N=C2S/C(=C\c3ccc(OCC(=O)O)cc3)C(=O)N2CCc2c[nH]c3ccccc23)cc1`, the Potency is reported as inconclusive [inhibitor, partial curve, poor fit].
In the case of `NC(=O)COC(=O)c1cc(S(=O)(=O)N2CCOCC2)ccc1N1CCCCC1`, the Potency is reported as “inactive”.
With `CCCOc1ccc(CNCCCOCC)cc1OC` the Potency was inconclusive [inhibitor, single point].
With `CC(C)C(C)NC(=O)COC(=O)/C=C/c1ccc(S(=O)(=O)N2CCc3ccccc32)cc1` (stereo unspecified) the Potency was inconclusive [inhibitor, partial curve, poor fit].
For `CC1CN(CCC(=O)Nc2ccccc2F)CC(C)O1` (stereo unspecified), the Potency was inconclusive [inhibitor, full curve, poor fit].
For `CC(=O)c1ccc(N2CCN(C(=O)CCCn3c(=S)[nH]c4cc5c(cc4c3=O)OCO5)CC2)cc1`, the Potency was active: 11.7 µM.
For `CCCOc1ccccc1C1CC(=O)Nc2cc3c(cc21)OCO3` (stereo unspecified), the Potency was inconclusive [inhibitor, partial curve].
In the case of `Cn1c2ccccc2c(=O)c2c(=O)n(C3CCCCC3)c(-c3ccco3)nc21`, the Potency is reported as active: 4.65 µM.
For `CCOC(=O)N1c2ccccc2Sc2ccccc21`, the Potency was inconclusive [inhibitor, partial curve, poor fit].
In the case of `COC(=O)c1c(NC(=O)c2ccc(C)cc2)sc(Cc2ccccc2)c1C`, the Potency is reported as inconclusive [inhibitor, single point].
In the case of `Cc1cc[n+](CC(=O)N2CCCc3ccccc32)cc1`, the Potency is reported as “inactive”.
For `Cc1cc(C)cc(N=Cc2[nH]c3ccc(Br)c(Cl)c3c2O)c1`, the Potency was active: 1.47 µM.
With `O=C(O)c1ccc2ncc(NC(=O)c3ccc(F)cc3)c(=O)n2c1` the Potency was inconclusive [inhibitor, full curve].
In the case of `Cc1cc(SCC(=O)Nc2cccc(S(=O)(=O)NC3=NCCCCC3)c2)c(C)cc1Br`, the Potency is reported as “inactive”.
In the case of `O=C(Nc1nnc(-c2ccc(Cl)cc2)o1)C1CCCCC1`, the Potency is reported as inconclusive [inhibitor, single point].
With `Cc1coc2c(C)c3oc(=O)c(CCC(=O)NCCN4CCOCC4)c(C)c3cc12` the Potency was inconclusive [inhibitor, partial curve, poor fit].
For `CCn1cc(C(=O)N2CCN(c3ccc(OC)cc3)CC2)c(=O)c2cc(S(=O)(=O)N3CCCCC3)ccc21`, the Potency was inconclusive [inhibitor, single point].
With `COc1ccc(N2C(=O)C3C(C2=O)C3(c2ccccc2)c2ccccc2)cc1` (stereo unspecified) the Potency was inconclusive [inhibitor, partial curve, poor fit].
With `O=C(COc1ccc(S(=O)(=O)NC2CCCCC2)cc1)N1CCN(c2cccc(Cl)c2)CC1` the Potency was inconclusive [inhibitor, partial curve, poor fit].
For `CCOC(=O)C1C(C)=CC(=O)CC1c1ccco1` (stereo unspecified), the Potency was inconclusive [inhibitor, partial curve, poor fit].
In the case of `CC(C)=C1C2CCC1C1C(=O)N(c3ccc(C)c(C)c3)C(=O)C21` (stereo unspecified), the Potency is reported as inconclusive [inhibitor, single point].
In the case of `Cc1ccc(C(c2nnnn2CCc2ccccc2)N2CCC(C)CC2)cc1` (stereo unspecified), the Potency is reported as active: 7.38 µM.
With `NCCCn1c(C(=O)c2ccc(Cl)cc2)c2ccc(C(F)(F)F)cc2[n+]1[O-]` the Potency was active: 9.28 µM.
For `O=C(NCc1ccco1)c1ccc2c(c1)N(Cc1ccccc1)CCS2`, the Potency was inconclusive [inhibitor, single point].
In the case of `C=CCNC(=S)NNC(=O)C(CCCC)CC(C)(C)O` (stereo unspecified), the Potency is reported as inconclusive [inhibitor, partial curve, poor fit].
